Laboratory results from PubChem BioAssay AID504648 (National Center for Advancing Translational Sciences (NCATS), 2011).
The campaign covered roughly 390,000 compounds. About 610 (0.16%) were called active. Inconclusive results (about 4%) are left out. The call rests on the fitted dose curve; in most records, active means well fitted inhibition curve with a large enough effect; inconclusive means small, poorly fitted or top-dose-only effect, or effect the other way, or another doubt; inactive means no such curve, though single readings can be large or run the other way. The entries are a selection whose mix differs from that of the whole data set. Some compounds were tested as several samples or in several runs, with calls that do not always agree.

Test: Nrf2 qHTS screen for inhibitors: counterscreen for cytotoxicity
Details: A549 ARE-Fluc cells, CellTiter-Fluor viability, 18-24 h; series mostly up to 46 µM; activity change, negative = cytotoxicity: at the top concentration
In short: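 Cytotoxicity counterscreen: CellTiter-Fluor fluorescence was measured in A549 ARE_Fluc cells after 18-24 h of compound exposure in a concentration series. The subsequent BugLite luminescent read reports ARE-luciferase activity.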
On the % scale 0 is the no-effect control and ±100 the full control effect; potency means the concentration at half of the fitted maximal effect.

Compound | activity change, negative = cytotoxicity | Potency
COc1cccc(C2c3c(ncn(-c4ccccc4)c3=N)Oc3ccc4ccccc4c32)c1 (configuration not stated) | inactive: -17.3% | 
COc1ccccc1C1c2c(ncn(-c3ccccc3)c2=N)Oc2ccc3ccccc3c21 (configuration not stated) |  | active: 20.6 µM
Cc1sc(-n2c(C)cc(/C=C3\SC(=S)NC3=O)c2C)c(C#N)c1C |  | active: 20.6 µM
O=C1N[C@@H](c2ccccc2)COC(=O)[C@H](Cc2ccc(F)cc2)C/C=C\C[C@H]1CC(=O)N(CCO)Cc1ccccc1 | inactive: 2.41% | 
Cc1cccc(/C=C/c2onc(C)c2[N+](=O)[O-])n1 |  | active: 18.4 µM
Cc1cccc(Nc2nnc(SCC(O)=C(C#N)c3nc4ccccc4[nH]3)s2)c1 | inactive: -10.2% | 
O=C(CN1CCN(c2ccc(Cl)cc2)CC1)Nc1ccc(F)c(F)c1 | inactive: -0.389% | 
Cc1ccc(O)c([C@H](CCN(C(C)C)C(C)C)c2ccccc2)c1 | inactive: -7.16% | 
CC(C)(C)[C@@H]1COC(=O)[C@H](Cc2ccc(F)cc2)CC/C=C\C[C@@H](CC(=O)N(CCO)Cc2ccccc2)C(=O)N1 | inactive: -8.15% | 
COc1ccc(C)cc1NS(=O)(=O)c1ccc(-c2cnc(C3CC3)o2)cc1 | inactive: -8.63% | 
Cc1nnc(Sc2cc(NCCO)c([N+](=O)[O-])c3nonc23)s1 |  | active: 25.9 µM
COc1ccc(N(C)C(=O)c2oc(=O)c3ccccc3c2-c2ccc(C)cc2)c(OC)c1 | inactive: -0.107% | 
CCO[C@H]1OC(C(=O)N2CCN(Cc3ccc4c(c3)OCO4)CC2)=C[C@@H](c2ccc(C(F)(F)F)cc2)[C@@H]1CCCO | inactive: -16.3% | 
O=C(C[C@H]1C/C=C\CC[C@H](Cc2ccc(F)cc2)C(=O)OC[C@H]2CCCN2C1=O)N[C@@H](CO)Cc1ccccc1 | inactive: -6.08% | 
CC(C)(C)[C@@H]1COC(=O)[C@H](Cc2ccc(F)cc2)CC/C=C\C[C@H](CC(=O)N(CCO)Cc2ccccc2)C(=O)N1 | inactive: -15.6% | 
CCC1CN(C(=O)NCc2ccccc2)c2cc(C)ccc2O1 (configuration not stated) | inactive: 0.27% | 
COc1cc2c(c(OC)c1OC)-c1ccc(OC)c(=O)cc1[C@@H](NC(C)=O)CC2 | inactive: -12.6% | 
N=c1c2c(ncn1CCN1CCOCC1)Oc1ccc3ccccc3c1C2c1ccccc1 (configuration not stated) | inactive: -4.88% | 
O=C(CCCN1C(=O)/C(=C\c2cccs2)SC1=S)Nc1cccnc1 | inactive: -25.9% | 
C=CC[C@@H](CC(=O)N[C@@H](CO)Cc1ccccc1)C(=O)NC[C@@H](OC(=O)[C@@H](CC=C)Cc1ccc(F)cc1)c1ccccc1 | inactive: -6.8% | 
O=C1/C(=C\c2cccs2)N=C(c2cccs2)N1Nc1ccccc1 | inactive: -17.8% | 

Compound | activity change, negative = cytotoxicity | Potency
CC(NC(=O)COC(=O)CCc1ccccc1)c1ccccc1 (configuration not stated) |  | active: 23.1 µM
O=C(NCc1ccccc1)C1=C[C@@H](c2csc3ccccc23)C[C@@H](OCCCCO)O1 | inactive: -13.2% | 
C/C(N)=C(/C#N)C(=O)CSc1n[nH]c(-c2ccccc2Br)n1 | inactive: 7.7% | 
Cn1cccc1C(=O)NC(=O)COC(=O)c1ccc(S(C)(=O)=O)c([N+](=O)[O-])c1 | inactive: -7.16% | 
COc1cc(/C=C2\SC(=O)N(c3cccc(Cl)c3)C2=O)cc([N+](=O)[O-])c1O |  | active: 13 µM
O=C1NC[C@H](c2ccccc2)OC(=O)[C@H](Cc2ccc(F)cc2)C/C=C\C[C@@H]1CC(=O)N(CCO)Cc1ccccc1 | inactive: -10.1% | 
CCOC(=O)c1ccc(NC(=O)c2nc(S(=O)(=O)Cc3ccccc3)ncc2Cl)cc1 | inactive: -29% | 
O=C1c2ccccc2-c2onc3c(N4CCN(CCO)CC4)cc(N4CCN(C(=O)c5ccco5)CC4)c1c23 |  | active: 20.6 µM
COc1ccc(CNC(=O)c2nc(S(=O)(=O)Cc3ccccc3)ncc2Cl)cc1 | inactive: -19.4% | 
Cc1cccc(NS(=O)(=O)c2ccc3nc(-c4ccccc4)[nH]c3c2)c1C | inactive: 2.58% | 
CCCCCn1c(=N)n(CC(O)COc2ccccc2OC)c2ccccc21 (configuration not stated) | inactive: -21.3% | 
CCOC(=O)c1cc2c(=O)n3ccccc3nc2n(Cc2ccco2)c1=NC(=O)c1ccccc1OC | inactive: -13.4% | 
O=[N+]([O-])c1ccc(O)c2ncccc12 |  | active: 13 µM
CC(C)(C)c1ccc(-c2noc(CCC(=O)NCc3ccco3)n2)cc1 |  | active: 11.6 µM
C=CC[C@@H](CC(=O)N[C@H](CO)Cc1ccccc1)C(=O)N[C@@H](COC(=O)[C@@H](CC=C)Cc1ccc(F)cc1)Cc1c[nH]c2ccccc12 | inactive: -6.51% | 
C=CCC[C@@H](Cc1ccc(F)cc1)C(=O)OC[C@@H](NC(=O)[C@@H](CC=C)CC(=O)N[C@H](CO)Cc1ccccc1)C(C)(C)C | inactive: -27.1% | 
CC1CCN(S(=O)(=O)c2ccc3c(c2)C(=NO)c2cc(S(=O)(=O)N4CCC(C)CC4)ccc2-3)CC1 |  | active: 5.17 µM
COc1ccccc1C(=O)Nc1cc(-c2ccc(C)cc2)no1 | inactive: 17.5% | 
O=C(CN1CCN(Cc2ccc(F)cc2Cl)C1=O)NCCc1ccc(Cl)cc1 | inactive: -2.61% | 
COc1cc2c(=O)n(CCC(=O)NCC3CCCO3)c(=O)n(CC(=O)Nc3ccc(F)cc3)c2cc1OC (configuration not stated) | inactive: -19.2% | 
C=CCC[C@@H](Cc1ccc(F)cc1)C(=O)OC[C@H](Cc1c[nH]c2ccccc12)NC(=O)[C@@H](CC=C)CC(=O)N[C@@H](CO)Cc1ccccc1 | inactive: -10% | 

Compound | activity change, negative = cytotoxicity | Potency
C=CC[C@H](CC(=O)N[C@H](CO)Cc1ccccc1)C(=O)N[C@@H](COC(=O)[C@@H](CC=C)Cc1ccc(F)cc1)Cc1c[nH]c2ccccc12 | inactive: 0.926% | 
C[C@]12CCC(=O)C[C@@H]1CC[C@@H]1[C@@H]2CC[C@]2(C)[C@@H](C(=O)COC(=O)CCC(=O)O)CC[C@@H]12 | inactive: 0.606% | 
CCOC(=O)/C(=C/C=C1\Sc2cc(OCC)c(OCC)cc2N1CC)C(C)=O | inactive: -29.1% | 
C=CC[C@@H](CC(=O)N[C@@H](CO)Cc1ccccc1)C(=O)N[C@H](COC(=O)[C@@H](CC=C)Cc1ccc(F)cc1)Cc1c[nH]c2ccccc12 | inactive: -4.88% | 
CCc1nn2c(N)c(/C=C3\C=Nc4ccccc43)c(=O)nc2s1 | inactive: -13.4% | 
CCOc1ccccc1CNC(=O)CCn1ccc2cc(S(=O)(=O)N3CCCCC3)ccc21 | inactive: 0.52% | 
CCOCCCn1c(=NC(=O)c2cccnc2)c(C(=O)OCC)cc2c(=O)n3ccccc3nc21 | inactive: -16.6% | 
C=CC[C@@H](CC(=O)N[C@@H](CO)Cc1ccccc1)C(=O)N[C@H](C)COC(=O)[C@@H](CC=C)Cc1ccc(F)cc1 | inactive: -7% | 
N=C(N)SCc1nc2ccccc2c(=O)n1-c1ccccc1 | inactive: -3.5% | 
CS(=O)(=O)N1CCN(c2ccc(NC(=O)c3ccc([N+](=O)[O-])o3)cc2)CC1 |  | active: 13 µM
CC(C)(C)OC(=O)C[C@H]1C/C=C\C[C@@H](CC(=O)N(CCO)Cc2ccccc2)C(=O)NC[C@H](c2ccccc2)OC1=O | inactive: -3.59% | 
Cc1cccc(CS(=O)(=O)Cc2ccc(C(=O)NC(C)c3ccccc3)o2)c1 (configuration not stated) | inactive: 11.2% | 
COc1cc(C(CC(=O)N2CCCC2)c2c(OC)cc(OC)c3ccc(=O)oc23)cc(OC)c1OC (configuration not stated) | inactive: -14.6% | 
CC(=NNc1nc2ccccc2o1)c1cc2ccccc2cn1 |  | active: 10.3 µM
CCN(C(=O)C(C)N1C(=O)/C(=C/c2ccco2)SC1=S)C1CCS(=O)(=O)C1 (configuration not stated) |  | active: 14.6 µM
Cc1ccccc1-c1cc(C(=O)Nc2sc(C(=O)OC(C)C)c(C)c2C#N)c2ccccc2n1 |  | active: 7.31 µM
COc1ccc(C2CC(=O)Oc3c(C(CCN4CCCCC4)c4ccc(N(C)C)cc4)c(OC)cc(OC)c32)cc1 (configuration not stated) | inactive: -25.5% | 
C=CC[C@@H](CC(=O)N[C@@H](CO)Cc1ccccc1)C(=O)N[C@@H](COC(=O)[C@@H](CC=C)Cc1ccc(F)cc1)Cc1c[nH]c2ccccc12 | inactive: -18.2% | 
CC1=Nc2cc(C(=O)N3CCCCC3)ccc2Sc2ccc(C)cc21 | inactive: 0.663% | 
CC(=C\c1ccccc1)/C=C1/SC(=S)N(C(C(=O)O)C(C)C)C1=O (configuration not stated) | inactive: -14.9% | 
O=C1C=C(NCCc2cc(Br)c(O)c(Br)c2)C(=O)c2ncccc21 |  | active: 23.1 µM

Compound | activity change, negative = cytotoxicity | Potency
CCCCc1ccc(-c2csc(/C(C#N)=C\c3ccco3)n2)cc1 | inactive: -11.3% | 
CC1=NN(c2ccccc2)C(=O)C1/C=C1\NC(=S)NC1=O (configuration not stated) | inactive: -12.2% | 
Cc1cc(Br)ccc1SCC(=O)OCC(O)=C(C#N)c1nc2ccccc2[nH]1 | inactive: 0.396% | 
CC(C)(C)OC(=O)C[C@H]1C/C=C\C[C@H](CC(=O)N(CCO)Cc2ccccc2)C(=O)NC[C@H](c2ccccc2)OC1=O | inactive: -4.98% | 
CN1CCN(c2ccc(Nc3ccnc4cc(Cl)ccc34)cc2)CC1 |  | active: 6.51 µM
O=C(Nc1cccc(S(=O)(=O)Nc2ccc(Cl)cc2)c1)c1ccc2c(c1)OCCO2 |  | active: 16.4 µM
CN(C)c1ccc(C=c2c3ccccc3n3c2c2c([n+]3C)CCCC2)cc1 |  | active: 20.6 µM
CC(C)NCC(O)COc1ccc(CC(N)=O)cc1 (configuration not stated) | inactive: -5.39% | 
Cc1nc([N+](=O)[O-])c(Br)n1CC(=O)c1ccc(Br)cc1 |  | active: 16.4 µM
Cc1cc(F)ccc1S(=O)(=O)Nc1ccccc1C(=O)Nc1ccccc1-c1nc2ccccc2[nH]1 |  | active: 23.1 µM
COc1cc(/C=N/NC(=O)c2ccncc2)ccc1O | inactive: -2.68% | 
O=C1N[C@@H](Cc2ccccc2)C(=O)N2[C@H]1C[C@]1(Br)c3ccccc3N(S(=O)(=O)c3ccc(F)cc3)[C@H]21 | inactive: -2.9% | 
COc1cccc2c1C(=O)c1c(O)c3c(c(O)c1C2=O)C[C@@](O)(C(=O)CO)C[C@@H]3OC1CC(N)C(O)C(C)O1 (some centres not stated) |  | active: 8.2 µM
CCOc1ccccc1-n1c(C)nc2cc(C(=O)O)ccc21 | inactive: -0.804% | 
COc1cc2nc(Nc3ccc(C)c(C)c3)nc(N)c2cc1OC | inactive: 0.586% | 
Cc1ccc(-c2c(C(=O)N(C)Cc3ccccc3)oc(=O)c3ccccc23)cc1 | inactive: 1.43% | 
COc1ccc([C@H]2/C=C\CN(C(=O)c3ccc(C)cc3)[C@@H](C)C(=O)N2Cc2ccc(F)cc2)cc1 | inactive: -12.6% | 
CCCCN(CCCC)CCNC(=O)c1cn(CC)c2ccc(S(=O)(=O)N(C)C3CCCCC3)cc2c1=O | inactive: -1.63% | 
CCC(=O)NC(c1ccco1)c1cc(Cl)c2cccnc2c1O (configuration not stated) | inactive: -12.8% | 
